# Results: paper PMC12136788
# Substitutions are numbered along the chain they refer to. The list shows a part of the results.
# B1: chr12:39763582:39763583:-_ENSG00000139116_ENST00000544797|hu_mus|hu_hu_hu_mus_False|68_78 (ssRNA)
# RNA: GGGAGUUCUACAGUCCGACGAUCCUCUAGGAACUGGGCAUUCACUUUGAAUUCAGGAGCAGGAAGCCCAUUUUUAAUCGCUGAGGUCUUUUUCUCAUCAAUACUCUUGAACAGGUGUCUAACAGCACGAGAGAUGAUGCCCUGCAACAGAGGAUUGAGCAUCA
# B2: chr14:53325200:53325201:-_ENSG00000073712_ENST00000341590|hu_mus|FALSE|FALSE (ssRNA)
# RNA: GGGAGUUCUACAGUCCGACGAUCAUUUUGGUCUUUCGCACGAGUUGAGAGAAAUAUGUAACCACCAAUGAAUUCGUGGACCACCUUGCAGUCUACUUCGGUACAGAUGAAGGACAACCGGACCUCAUCUGCAAACUCUACAGUCAACAGAGGAUUGAGCAUCA
# B3: chr5:145543945:145543946:-_ENSG00000133706_ENST00000545646|hu_hu|hu_hu_hu_mus_True|1_18 (ssRNA)
# RNA: GGGAGUUCUACAGUCCGACGAUCCUGAACGGCCAGUGGUGGGAAAUAAUCAAGCCAGUGCUCUGCUUCAGAAAACUUCACUAUGUCGUCAUCAGAGAGCCCAAGGGAUUUCAUAAUGCCCCACUGGUACUUAGAAGAUCCAGCCAACAGAGGAUUGAGCAUCA
# B4: chr6:148129406:148129407:-_ENSMUSG00000030304_ENSMUST00000136008|mus_hu|FALSE|FALSE (ssRNA)
# RNA: GGGAGUUCUACAGUCCGACGAUCAAUCUGAUAUAUCUUGUGGUGCUUACAAUUUGCCUUACACUUUCAUUUAAAGUUACCCUGUUCUCCACUCACCACAUGUAUAAAAUAUCCUAUUUUUUCUCUUAAUGUUUUACAAACCGGCAACAGAGGAUUGAGCAUCA
# B5: chr5:131913501:131913502:-_ENSMUSG00000029673_ENSMUST00000160071|mus_hu|FALSE|FALSE (ssRNA)
# RNA: GGGAGUUCUACAGUCCGACGAUCACCACUACAGUUCCAGUGUACAUAUUCCUUGCAUUUUUUUUAGUUGUUGUCUUAAAAAAAAAAAAAAACACCGCACAACAUCUGGAGUUCACAAAAUCUGAAGCUCACAACUAAACCUUCCAACAGAGGAUUGAGCAUCA
# B6: chr1:23395093:23395094:+_ENSG00000004487_ENST00000356634|perfect_dup|FALSE|FALSE (ssRNA)
# RNA: GGGAGUUCUACAGUCCGACGAUCUGCCUGGCCAAGGGACACAGGCUUAUUAUUGAGGACAUUGAAGUCUAGUUGAUGACUAAGGUAAGAUGUAGCUUCUAGCAACCGGUUAAACUCUUGCUCUACCAUUUCAUCUUUCUCUUUCAACAGAGGAUUGAGCAUCA
# B7: chr11:47008823:47008824:+_ENSG00000149179_ENST00000278460|hu_hu|FALSE|FALSE (ssRNA)
# RNA: GGGAGUUCUACAGUCCGACGAUCUCCCUGGCAUACACUGUUAAAAUAUUCAGUGAAGAACCUGGCAAUUCCAUAUUGGCUAAUAUCUUCCCUGUUUUCUAGCAGCUGGCACACUGCAUCCUCCAUGUAGGUGAGGACAUGUCGCAACAGAGGAUUGAGCAUCA
# B8: 24703985_24704105_2818_3pUTR_ENSG00000112304_ENST00000230048|human|control|control (ssRNA)
# RNA: GGGAGUUCUACAGUCCGACGAUCUGUUUAUUCAUGCUUAACGCCCUUCUCAAGUAUACUCUCCAUCUGCUCUUCAUUGAUGUUACUUUUGAGCGCCUGGUCAAGGUGUCCUGGUUUUGCCCUAUGUGUGGUACUUACUACUAGCAACAGAGGAUUGAGCAUCA
# B9: chr3:176767854:176767855:-_ENSG00000177565_ENST00000430069|hu_hu|hu_hu_hu_mus_False|48_88 (ssRNA)
# RNA: GGGAGUUCUACAGUCCGACGAUCGACAUCCUUGUUACUGGGCACGUCUUGCCCUCCUUCCCGUAUGCAGUGUCUAAGCACGAGCUGUGUAGAGCCACUCGUGCUGUUCUCACUGAGGUUCCAGAUUCUUGCCGUGGAGUCUCCCAACAGAGGAUUGAGCAUCA
# B10: chr12:45383586:45383587:+_ENSMUSG00000036257_ENSMUST00000043082|perfect_dup|FALSE|FALSE (ssRNA)
# RNA: GGGAGUUCUACAGUCCGACGAUCGUAAAUAUAUAUAUCUACAGUCAGAUUAAUAGACAUAACUUAAAAAUCAUUUAUUUUCUAUGACAUUCUCUCACUUCUUGAACGCUUCAUUUAAGAAAUGCCAUAAUUCAUGGUCUUACUCAACAGAGGAUUGAGCAUCA
# B11: chr17:60770872:60770873:+_ENSG00000011028_ENST00000303375|hu_hu|hu_hu_hu_mus_True|38_108 (ssRNA)
# RNA: GGGAGUUCUACAGUCCGACGAUCUCUCUUUUCUUUUAAAAAAAAAGACAAACAAUAAUAGCACAUUUCGAGAAUCAAGAACUACAAUAGAGGGUCCAUGUCUUCGAUUUGUUCACAUCGUCCUGCACUGGGACACGGGGACUGCAACAGAGGAUUGAGCAUCA
# B12: 102452692_102452812_2354_CDS_ENSG00000197102_ENST00000360184|human|control|control (ssRNA)
# RNA: GGGAGUUCUACAGUCCGACGAUCGACUUCUUUGGAUAGUGUGAUAAUCUCAGGAAGAAAGUUAACUUUCAGCUUAAGCACAUUUCCAGUUCGGCCCCGAACCCGAGUACUUUCGAUGGUGAAAAUGCGCCCCGAGACACCGAGCAACAGAGGAUUGAGCAUCA
# B13: chr13:3555642:3555643:+_ENSMUSG00000021218_ENSMUST00000059515|mus_hu|FALSE|FALSE (ssRNA)
# RNA: GGGAGUUCUACAGUCCGACGAUCAUCAAAUUUCUUAUACACAUCUCGCAUUGUGGUCUUCUUAGGAUCAAUGCCUUCAAAAGUUCUUGGAUCUUUUUCAUCGAAGUUGGCAACAUACACUAGGAAUUUCCUGAAGCGACGUUUCAACAGAGGAUUGAGCAUCA
# B14: chr2:198267414:198267415:-_ENSG00000115524_ENST00000335508|hu_hu|FALSE|FALSE (ssRNA)
# RNA: GGGAGUUCUACAGUCCGACGAUCCUUAAUACCAGUGUGUCUCGCUUGCCAGGACUUCUUGCUUUUGCACACAGCUUUUAAGAAGGGCAAUAAAGAAGGAAUGCCCAGGGCAGAGGCUACAACAGCAAAAGCUCUAGCUGUUGUCAACAGAGGAUUGAGCAUCA
# B15: 109380955_109381075_4146_CDS_ENSG00000153201_ENST00000283195|human|control|control (ssRNA)
# RNA: GGGAGUUCUACAGUCCGACGAUCGCUGUUACAAUGCCACCAAGACCCUUCUUUCUUUGCAACCUGAAAUUCAAAAUUCAGGUUUCCAGCAUCAGAUUUGCAAAUAUCCUUGUUAUCAUGACUUGUGGGUUCUUUUACAAUUCUCAACAGAGGAUUGAGCAUCA
# B16: chr12:80258887:80258888:-_ENSMUSG00000021124_ENSMUST00000055262|mus_mus|motif|central (ssRNA)
# RNA: GGGAGUUCUACAGUCCGACGAUCAUUUACCAGUCUGCUCUUAGUACGUUCCAACUGGUCUCGUUGCUCCCCCAACUCUUCGGUGAUUUCUGUACCAAUUUGAUCAGUUUCUGUGGCAAUCCGAUGAGAACGCUCAAUGCUUUGCAACAGAGGAUUGAGCAUCA
# B17: chr14:31077228:31077229:+_ENSG00000092140_ENST00000206595|hu_hu|FALSE|FALSE (ssRNA)
# RNA: GGGAGUUCUACAGUCCGACGAUCUGUUGCAGUAUUUAUCCUGAUUAUAAUCUGUGCCACAUCAAAGUCUGAAACAUCAUCUAAAAUUGGCUGGGUAUUUUCUGGUCCAUAAACAAGGCAGUUAAACAAGGUUUUAGAAAAGAACAACAGAGGAUUGAGCAUCA
# B18: 77378017_77378137_4513_3pUTR_ENSG00000048649_ENST00000308488|human|control|control (ssRNA)
# RNA: GGGAGUUCUACAGUCCGACGAUCCAUCUUCCUCCUCUUCUGGUGCUCCUGCCUCCUGCCCACCACUUGUCCCAUUGGAGGCUAGGCUUGCACUGGCUGUGCUGUUGUCCUUGGGGGUCUGAGACUUCUCAGUAGGCUUGCCAACAACAGAGGAUUGAGCAUCA
# B19: chr1:93819538:93819539:+_ENSG00000117505_ENST00000370267|hu_mus|motif|central (ssRNA)
# RNA: GGGAGUUCUACAGUCCGACGAUCCUCUUCAGGAAUGCCGAGGUUUUCCAAACGAGAACUGGCCUUUCUUCUUUUUAAUGCGGCUGUCUUGCAUUCUUGUAAGACUUCUUUUACUUCACUGAUGUAAGAGCCAAAGCCCAAACUCAACAGAGGAUUGAGCAUCA
# B20: chrX:69798090:69798091:-_ENSMUSG00000031343_ENSMUST00000055966|mus_mus|mus_mus_mus_hu_False|78_78 (ssRNA)
# RNA: GGGAGUUCUACAGUCCGACGAUCAAGUCCCCGGGUUCUUGUCGUCUUGAUUCCCCUUGGCUAGUGGUUCCAGGGAGAAUAUUAAUCAGGAAAAGAAUCCCAAGGCUGGUCAUGUAACAGUGACUUGUUUGUGUGAUUAUCAUCCAACAGAGGAUUGAGCAUCA
# B21: chr3:176767854:176767855:-_ENSG00000177565_ENST00000430069|hu_hu|hu_hu_hu_mus_False|68_78 (ssRNA)
# RNA: B9 RNA with U48C, C60U, G66A, G69A, U87C, A92G
# B22: chr1:220276048:220276049:+_ENSG00000067704_ENST00000302637|hu_hu|hu_hu_hu_mus_True|68_98 (ssRNA)
# RNA: GGGAGUUCUACAGUCCGACGAUCGCAAAUUGCCUGGUUGGCUGGAAUUGUCCAAGGCUGGGUGGUCCAGACCAAAACGCUAACAGGGGAUGAGGCAUCUGUAAGAGACUCCAACUUCGGAGGAGGUCUCAGGAGGGGGAAUCUCAACAGAGGAUUGAGCAUCA
# Target: T1, UNK ZnF1-3 (human, UniProt Q9C0B0 31-174)
# T1 sequence: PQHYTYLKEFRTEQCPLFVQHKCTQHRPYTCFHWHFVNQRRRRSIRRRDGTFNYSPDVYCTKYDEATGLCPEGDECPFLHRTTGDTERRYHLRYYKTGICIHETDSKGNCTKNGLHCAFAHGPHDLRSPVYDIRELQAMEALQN
# Test: nsRBNS (natural sequence RNA bind-n-seq); RBNS binding buffer (assumed for nsRBNS): 25 mM Tris pH 7.5, 150 mM KCl, 3 mM MgCl2, 0.01% Triton X-100, 500 ug/ml BSA, 20 U/ml SUPERase-In, 4 C; UNK is unkempt and MSI1 is Musashi-1; names of the RNAs are library labels; protein concentration not given here; high values mean tight binding
row,Binder,binding signal
1,B1,1.28 enrichment R
2,B2,0.733 enrichment R
3,B3,1.25 enrichment R
4,B4,0.762 enrichment R
5,B5,1.29 enrichment R
6,B6,0.691 enrichment R
7,B7,0.786 enrichment R
8,B8,0.373 enrichment R
9,B9,0.4 enrichment R
10,B10,0.46 enrichment R
11,B11,0.723 enrichment R
12,B12,0.688 enrichment R
13,B13,0.846 enrichment R
14,B14,1.06 enrichment R
15,B15,0.689 enrichment R
16,B16,0.569 enrichment R
17,B17,1.57 enrichment R
18,B18,0.916 enrichment R
19,B19,0.448 enrichment R
20,B20,0.496 enrichment R
21,B21,0.458 enrichment R
22,B22,1.65 enrichment R
